# In publication PMC4336329 (PLoS ONE, 2015):
# Hit rate of the full screen: of about 310,000 compounds, about 2,200 (0.71%) showed an effect of 50% or more. Effects have a minus sign here. The list shows a part of the results.
# Biological target: human ether-à-go-go-related gene (hERG) potassium channel (human, UniProt Q12809)
# Assay: primary screen, population patch clamp on CHO cells stably expressing hERG
# Sequence of human ether-à-go-go-related gene (hERG) potassium channel (Q12809 whole entry, looked up): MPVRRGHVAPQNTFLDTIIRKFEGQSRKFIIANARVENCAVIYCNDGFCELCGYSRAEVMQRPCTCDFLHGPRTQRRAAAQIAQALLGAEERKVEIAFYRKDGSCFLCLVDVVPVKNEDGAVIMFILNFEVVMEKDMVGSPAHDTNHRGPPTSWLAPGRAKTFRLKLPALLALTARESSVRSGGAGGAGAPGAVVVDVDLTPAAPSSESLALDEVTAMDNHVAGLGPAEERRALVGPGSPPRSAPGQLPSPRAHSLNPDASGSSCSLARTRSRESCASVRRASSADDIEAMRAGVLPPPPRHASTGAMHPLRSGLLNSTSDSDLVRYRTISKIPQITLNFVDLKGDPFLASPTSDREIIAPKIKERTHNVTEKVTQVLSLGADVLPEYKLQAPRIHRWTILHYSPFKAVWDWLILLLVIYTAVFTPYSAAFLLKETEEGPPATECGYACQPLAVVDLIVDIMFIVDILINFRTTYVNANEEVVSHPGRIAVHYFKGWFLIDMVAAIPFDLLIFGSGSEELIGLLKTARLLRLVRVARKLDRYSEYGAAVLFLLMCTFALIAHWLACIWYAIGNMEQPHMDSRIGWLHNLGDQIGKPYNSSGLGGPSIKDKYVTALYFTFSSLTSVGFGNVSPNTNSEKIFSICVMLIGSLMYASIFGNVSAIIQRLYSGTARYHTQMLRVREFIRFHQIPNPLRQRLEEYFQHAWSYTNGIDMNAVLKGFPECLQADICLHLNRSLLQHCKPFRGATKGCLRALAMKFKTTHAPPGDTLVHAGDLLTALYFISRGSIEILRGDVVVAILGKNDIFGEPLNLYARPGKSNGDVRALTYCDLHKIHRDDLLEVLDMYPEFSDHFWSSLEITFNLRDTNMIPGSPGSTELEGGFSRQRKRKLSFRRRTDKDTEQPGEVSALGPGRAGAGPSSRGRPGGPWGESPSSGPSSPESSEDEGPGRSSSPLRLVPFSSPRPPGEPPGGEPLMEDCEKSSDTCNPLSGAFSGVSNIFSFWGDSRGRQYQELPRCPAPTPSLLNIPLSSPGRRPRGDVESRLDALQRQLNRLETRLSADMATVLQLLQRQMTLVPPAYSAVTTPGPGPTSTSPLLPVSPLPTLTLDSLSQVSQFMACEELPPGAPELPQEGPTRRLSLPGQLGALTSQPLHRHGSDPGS
row,Structure (SMILES),"hERG current change (%, negative = inhibition) at 1uM [%]"
1,COc1ccc(N2CCN(C(CNC(=O)C(=O)NCCCn3ccnc3)c3ccco3)CC2)cc1 (centres unmarked),10.9
2,CN(C(=O)CS(=O)(=O)c1cccc(Cl)c1)c1ccccc1,6.56
3,O=C(NCc1ccco1)c1ccccc1-c1nc(-c2ccc(F)cc2)no1,0.847
4,O=C(CN(Cc1ccc2c(c1)OCO2)C(=O)CSc1nc2ccccc2o1)NC1CCCCC1,12.5
5,COc1ccc(-c2cccc(C(=O)Nc3cccc(C(=O)O)c3)c2)cc1,15.9
6,O=C(N/N=C/C(Cl)=C\c1ccccc1)c1cnccn1,1.92
7,O=C(COc1ccc(Cl)cc1Cl)N1CCN(c2ccccn2)CC1,-0.352
8,O=C(CN(Cc1cccs1)C(=O)CSc1nnc(COc2ccccc2)o1)NC1CCCCC1,0.109
9,Cc1cc(S(=O)(=O)NCCCN2CCOCC2)ccc1Br.Cl,2.38
10,Cc1ccc(Cl)cc1N1CCN(C(=O)c2ccccc2SCC(=O)N2CCCC2)CC1,0.57
11,CN1C(=O)[C@H]2[C@@H](/C=C/c3ccccc3)N3C(=O)CN(Cc4ccccc4)C(=O)[C@@]3(C)[C@H]2C1=O,-2.77
12,O=C(N/N=C/c1cccc(C(F)(F)F)c1)c1cc2c(s1)-c1ccccc1CC2,2.97
13,O=C(Nc1ccc(S(=O)(=O)N2CCCC2)cc1)c1ccccc1,-6.63
14,CC(C)CCNC(=O)C(c1ccco1)N(CC1CCCO1)C(=O)Cn1nnc2ccccc21 (centres unmarked),15
15,Clc1ccc(N2CCN(Cc3ccc(Br)o3)CC2)cc1,11.4
16,N#CC1(c2ccccc2)CCCN1C(=O)c1ccc(Br)o1 (centres unmarked),10.4
17,CC(NC(=O)Cn1nc(-c2ccccc2)c2ccccc2c1=O)c1ccccc1 (centres unmarked),15
18,O=C(O)CCC(=O)NNc1nc(-c2ccccc2)c2cc(Cl)ccc2n1,9.94
19,COc1ccc(-c2ccc(SCC(=O)Nc3cccc(C(C)=O)c3)nn2)cc1OC,6.82
20,CCOc1ccc2nc(/N=C/c3nc(-c4ccccc4)oc3O)sc2c1,11.5
21,O=C1CCc2cc(S(=O)(=O)Nc3ccccc3)ccc2N1,3
22,CCOc1ccc(-c2c(=O)n(O)c3ccccc3[n+]2[O-])cc1,21.7
23,c1ccc(CSc2nnc3c(n2)OC(c2ccco2)Nc2ccccc2-3)cc1 (centres unmarked),14.9
